Measured values taken from paper PMC11601504 (bioRxiv, 2024).

Biological target: the molecule itself
Assay: negative-stain electron microscopy

Protein | stoichiometry N | binding result
Thorase E193Q ([…]) (enzyme) not shown | 6 | –
Thorase R304A ([…]) (enzyme) not shown | – | binds
